Laboratory results taken from PubChem BioAssay AID1476 (National Center for Advancing Translational Sciences (NCATS), 2009).
Hit rate of the full screen: of about 200,000 compounds, about 4,500 (2.2%) were called active. Inconclusive results, whose numbers are uncertain, are shown with a selection of clear calls. Calls come from the whole dose curve; as a rule, active = well fitted inhibition curve with a large enough effect; inconclusive = small, poorly fitted or top-dose-only effect, or effect the other way; inactive = flat fitted curve, though single readings scatter. Where the call is inconclusive, the potency comes from a doubtful curve fit.
Note: nearly all actives have a fitted effect of over 40% in size.
Potency is the fitted concentration of half-maximal effect; tags give direction and shape of the fitted curve.
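Throughout, for max response, negative = inhibition: plate controls were enzyme without inhibitor for no effect and buffer without enzyme for full effect.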

What follows are compounds tested against Cruzipain (Trypanosoma cruzi) (UniProt P25779) (assay: qHTS Assay for Promiscuous and Specific Inhibitors of Cruzain (without detergent)). Conditions: purified cruzain, Z-FR-AMC fluorescence, no detergent.
Sequence of UniProt P25779 (P25779 whole entry, looked up): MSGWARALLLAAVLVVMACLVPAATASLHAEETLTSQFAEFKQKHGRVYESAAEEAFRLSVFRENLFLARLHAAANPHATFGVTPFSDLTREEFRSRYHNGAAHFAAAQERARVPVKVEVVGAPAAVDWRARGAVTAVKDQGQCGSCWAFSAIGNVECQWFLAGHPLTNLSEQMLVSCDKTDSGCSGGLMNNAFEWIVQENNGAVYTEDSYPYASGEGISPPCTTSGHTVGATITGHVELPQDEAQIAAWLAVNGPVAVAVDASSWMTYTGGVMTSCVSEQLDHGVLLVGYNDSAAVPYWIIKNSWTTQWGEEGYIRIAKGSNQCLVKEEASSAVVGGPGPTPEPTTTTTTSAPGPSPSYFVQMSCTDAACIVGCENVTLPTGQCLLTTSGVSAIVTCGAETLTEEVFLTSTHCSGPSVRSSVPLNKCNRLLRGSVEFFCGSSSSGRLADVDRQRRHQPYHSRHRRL
How it was run: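 Purified cruzain at 1.5 nM, pre-incubated 15 min with compound at room temperature in 100 mM sodium acetate pH 5.5, 5 mM DTT, 0.00005% Triton X-100. Reaction started with 2 uM Z-FR-AMC; AMC fluorescence increase over 60 s gives rate.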
`O=C1CCCc2c1cc(C(=O)Nc1ccc(Cl)cn1)c(=O)n2-c1ccccc1` was tested, and the Potency was inconclusive: 39.8 µM [activator, single point].
With `COc1cc(-c2noc(-c3cccc(Cl)c3)n2)cc(OC)c1OC` the Potency was inconclusive: 31.6 µM [activator, partial curve].
With `N#CC1=C(N)OC2=C(CC/C2=C\c2ccccc2)C1c1ccccc1` (stereo unspecified) the Potency was inconclusive: 31.6 µM [inhibitor, single point].
In the case of `CCc1ccc(-c2csc(-c3cc4cc(Br)ccc4oc3=O)n2)cc1`, the Potency is reported as inconclusive: 10 µM [activator, partial curve, poor fit].
`CCOc1ccccc1CNC(=O)c1cnc2sc(N3CCC(C)CC3)nn2c1=O` was tested, and the max response, negative = inhibition was inactive: 11.5%.
For `COC(=O)C1=CN(C2CC2)C=C(C(=O)OC)C1c1ccccc1OC`, the Potency was inconclusive: 31.6 µM [activator, partial curve].
For `COc1ccc(OC)c(Nc2nc(-c3sc(NC(=O)c4ccccc4)nc3C)cs2)c1`, the Potency was inconclusive: 25.1 µM [inhibitor, single point].
With `Cc1cc(C)cc(O)c1` the max response, negative = inhibition was inactive: -0.0518%.
With `CCn1c(=O)cc(SCC(=O)N2CCN(c3cc(C)ccc3C)CC2)c2ccccc21` the Potency was inconclusive: 39.8 µM [activator, single point].
`Cc1ccc(C(=O)Nc2ccc(C(=O)/C=C/c3cccs3)cc2)cc1` was tested, and the Potency was active: 25.1 µM.
In the case of `CC(C)C(NS(=O)(=O)c1ccc2c(c1)oc(=O)n2C)C(=O)N1CCN(Cc2ccccc2)CC1` (stereo unspecified), the Potency is reported as inconclusive: 39.8 µM [inhibitor, single point].
In the case of `O=C(CNc1ccc2ccccc2c1)N/N=C/c1cc2ccccc2nc1Cl`, the Potency is reported as active: 25.1 µM.
`CCOC(=O)c1cc(OC(=O)c2ccc(OC)c(OC)c2)n(-c2ccccc2)n1` was tested, and the max response, negative = inhibition was inactive: 0.783%.
With `CCOC(=O)N1CCN(C(=O)COc2cccc3c2CCN(Cc2ccccc2C)C3=O)CC1` the Potency was inconclusive: 39.8 µM [activator, single point].
With `COCCNC(=O)[C@@]1(Cc2ccccc2)C=C[C@@H](C)N1C(=O)OC` the max response, negative = inhibition was inactive: -10.7%.
`CCOC(=O)c1c(C)oc2nc(C)nc(NCc3cccc(OC)c3)c12` was tested, and the Potency was inconclusive: 39.8 µM [activator, single point].
`Fc1ccc(Cl)cc1/C=N/n1cnnc1SCc1ccccc1` was tested, and the max response, negative = inhibition was inactive: 10%.
`CCCC/C(O)=C/c1nc2ccccc2[nH]c1=O` was tested, and the Potency was inconclusive: 39.8 µM [inhibitor, single point].
`O=C(NCCN1CCOCC1)[C@H](Cc1ccccc1)N1C(=O)c2ccccc2C1=O` was tested, and the max response, negative = inhibition was inactive: -6.89%.
In the case of `COc1ccc2nc(NC(=O)c3cc(C)oc3C)sc2c1`, the max response, negative = inhibition is reported as inactive: -24.8%.
`COc1ccccc1Cc1nc2ccccc2nc1SCC(=O)Nc1cccc(Cl)c1C` was tested, and the max response, negative = inhibition was inactive: 1.64%.
For `Cc1sc2c(c1C)c(=O)n(-c1cccc(C(F)(F)F)c1)c(=O)n2Cc1ccc(F)cc1`, the max response, negative = inhibition was inactive: -3.38%.
`COc1cccc(/C=N/N2CCN(c3ccncc3S(=O)(=O)N3CCCCC3)CC2)c1` was tested, and the Potency was inconclusive: 31.6 µM [activator, single point].
`CN(Cc1ccccc1)C(=O)CSc1nc2ccccc2n1Cc1ccccc1F` was tested, and the max response, negative = inhibition was inactive: -6.14%.
With `CCc1ccccc1NC(=O)c1cnc2sc(N3CCOCC3)nn2c1=O` the max response, negative = inhibition was inactive: -1.24%.
With `CCOC(=O)c1ccc(NC(=O)CC2C(=O)N(c3cccc(OC)c3)C(=O)N2Cc2ccc(OC)cc2)cc1` (stereo unspecified) the Potency was inconclusive: 31.6 µM [activator, single point].
`Cc1ccc(S(=O)(=O)Nc2nc3ccccc3nc2NCc2ccco2)cc1` was tested, and the Potency was inconclusive: 31.6 µM [inhibitor, single point].
For `COc1cc(/C=C/C(=O)c2c(O)cc(C)oc2=O)cc(OC)c1O`, the Potency was inconclusive: 25.1 µM [activator, single point].
With `O=C(OCC(=O)N1CCN(C(=O)c2ccco2)CC1)c1cc(-c2cccc(Br)c2)nc2ccccc12` the Potency was inconclusive: 10 µM [activator, partial curve].
For `CCn1c(=O)n(CC)c2cc(N3CCCCC3)c(NC(=O)Nc3ccccc3C(F)(F)F)cc21`, the Potency was inconclusive: 39.8 µM [activator, single point].
`Cc1oc2c(c1C(=O)NC(Cc1c[nH]c3ccccc13)C(=O)O)CCCC2` (stereo unspecified) was tested, and the Potency was inconclusive: 39.8 µM [activator, single point].
In the case of `COc1ccc(Cl)cc1NC(=O)CSC1=Nc2ccccc2C2=NC(CC(=O)NCc3ccc4c(c3)OCO4)C(=O)N12` (stereo unspecified), the max response, negative = inhibition is reported as inactive: -4.51%.
`COc1ccccc1N1CCN(C(=O)CCNS(=O)(=O)c2ccc3c(c2)CCN3C(=O)C2CC2)CC1` was tested, and the Potency was inconclusive: 31.6 µM [activator, single point].
In the case of `O=C(Nc1nnc(CC2=CCCCC2)s1)c1cccs1`, the max response, negative = inhibition is reported as inactive: -8.57%.
`O=S(=O)(c1ccc(Br)cc1)c1nc(-c2cccs2)oc1SCc1ccccc1F` was tested, and the Potency was inconclusive: 39.8 µM [inhibitor, single point].
For `Cc1oc(-c2ccccc2)cc1C(=O)NC(Cc1c[nH]c2ccccc12)C(=O)O` (stereo unspecified), the Potency was inconclusive: 39.8 µM [activator, single point].
In the case of `CCOC(=O)c1c(NC(=O)CSc2nnc(C)s2)sc2c1CCC(C)C2` (stereo unspecified), the Potency is reported as inconclusive: 31.6 µM [activator, single point].
`CCn1cc(C2=NOC(C(=O)Nc3ccccc3C(=O)OC)C2)c(C)n1` (stereo unspecified) was tested, and the Potency was inconclusive: 39.8 µM [activator, single point].
For `Clc1ccccc1CNc1nc2ccccc2c2nc(-c3cccnc3)nn12`, the max response, negative = inhibition was inactive: -1.06%.
With `COCCSc1nnc(NC(=O)Cc2cccs2)s1` the Potency was inconclusive: 1.26 µM [activator, single point].
For `CCOC(=O)c1c(-c2ccc(OC)cc2)csc1NC(=O)CSc1ncnc2sccc12`, the Potency was inconclusive: 25.1 µM [inhibitor, partial curve, poor fit].
For `COc1ccc2cc(/C=C3\SC(=S)NC3=O)c(N3CCOCC3)nc2c1`, the Potency was inconclusive: 39.8 µM [activator, single point].
In the case of `COCCN1C(=O)c2ccccc2C(C(=O)N2CCN(c3ccccc3)CC2)C1c1ccc(F)cc1` (stereo unspecified), the Potency is reported as inconclusive: 39.8 µM [activator, single point].
With `O=S(=O)(c1ccc(Nc2ccc(-c3ccc4c(c3)OCCO4)nn2)cc1)N1CCCC1` the Potency was inconclusive: 39.8 µM [inhibitor, single point].
In the case of `Cc1ccc(-c2cnc(NCc3ccc(C(F)(F)F)cc3)n2C)cc1`, the max response, negative = inhibition is reported as inactive: 2.67%.
In the case of `COc1ccc(/C=C/C(=O)Nc2nc3n(n2)C(c2ccccc2)C=C(c2ccccc2)N3)cc1` (stereo unspecified), the Potency is reported as inconclusive: 5.01 µM [inhibitor, single point].
In the case of `C(=N\Nc1nc(-c2ccccc2)cs1)/c1cccs1`, the Potency is reported as active: 25.1 µM.
In the case of `O=C(CN1C(=O)CC(c2ccccc2)Sc2ccccc21)Nc1cccc(Cl)c1` (stereo unspecified), the max response, negative = inhibition is reported as inactive: -4.34%.
`CCCCCCCCCCCCCCCC(=O)N[C@H](CN1CCOCC1)[C@H](O)c1ccccc1` was tested, and the max response, negative = inhibition was inactive: 2.32%.
In the case of `CCOCCn1ccc2c(OCC(=O)Nc3ccc(OC(F)(F)F)cc3)cccc2c1=O`, the Potency is reported as inconclusive: 31.6 µM [activator, single point].
`O=[N+]([O-])c1cccc(S(=O)(=O)NCC2CCCO2)c1` (stereo unspecified) was tested, and the max response, negative = inhibition was inactive: -9.97%.
`C=CCc1ccc(OCCOc2cccc3ccc(C)nc23)c(OC)c1` was tested, and the Potency was inconclusive: 39.8 µM [activator, single point].
In the case of `COc1ccc(NC(=O)C2CCCN(S(=O)(=O)c3ccc4c(c3)CCCC(=O)N4)C2)c(OC)c1` (stereo unspecified), the Potency is reported as inconclusive: 39.8 µM [activator, single point].
For `CCc1ccc(N(CC)C(=O)Cn2c(=O)oc3ccccc32)cc1`, the max response, negative = inhibition was inactive: 4.9%.
`Cc1oc(-c2ccccc2)nc1CN1C(=O)C(C)N=C(c2ccccc2F)c2cc(Cl)ccc21` (stereo unspecified) was tested, and the Potency was inconclusive: 39.8 µM [activator, single point].
`COc1ccc(/C=C/C(=O)c2ccc3c4c(cccc24)CC3)cc1` was tested, and the Potency was inconclusive: 39.8 µM [inhibitor, single point].
In the case of `COc1ccc(NC(=S)N(CCc2c(C)[nH]c3ccc(C)cc23)Cc2ccco2)cc1`, the Potency is reported as inconclusive: 25.1 µM [inhibitor, single point].
`CCOc1ccccc1NC(=O)Cn1cnc2sc(C)c(S(=O)(=O)N3CCC(C)CC3)c2c1=O` was tested, and the Potency was inconclusive: 6.31 µM [activator, single point].
`COc1cc(C(=O)Nc2ccc(S(=O)(=O)N3CCCCC3C)cc2)cc(OC)c1OC` (stereo unspecified) was tested, and the Potency was inconclusive: 31.6 µM [activator, single point].
For `Cc1ccc(Cl)cc1NC(=O)CCC(=O)Nc1cc(Cl)ccc1C`, the Potency was inconclusive: 31.6 µM [inhibitor, single point].
With `COc1cc(C2C3C(=O)N(Cc4ccccc4)C(=O)C3ON2c2ccccc2)cc(OC)c1OC` (stereo unspecified) the Potency was inconclusive: 31.6 µM [activator, single point].
In the case of `CCc1ccc(C2CC(=O)Nc3c2c(C)nn3-c2nc(C)cc(C)n2)cc1` (stereo unspecified), the Potency is reported as inconclusive: 39.8 µM [activator, single point].
In the case of `COc1cc(-c2nc3ncccn3c2Nc2ccc(C)cc2C)ccc1O`, the Potency is reported as inconclusive: 39.8 µM [activator, single point].
With `CCc1cccc(NC(=O)CCS(=O)(=O)c2cc(Br)cc3c2N(C(C)=O)CC3)c1` the Potency was inconclusive: 39.8 µM [activator, single point].
`O=C(CSc1nc2ccccc2nc1Cc1ccccc1)N1CCCCC1` was tested, and the max response, negative = inhibition was inactive: -0.222%.
`N#Cc1c(NC2CCCCC2)nc(-c2ccco2)c2c1CCCC2` was tested, and the Potency was active: 25.1 µM.
